Data on three proteins can be found in article doi:10.1101/2023.01.23.525122 (bioRxiv, 2023).

Data set [1] deals with the molecule itself. Briefly: SDS-resistant oligomer detection by SDS-PAGE.
Data set [2] concerns the molecule itself. Briefly: SDS-resistant oligomer detection by SDS-PAGE. This is another data set of the same source.

Read-outs that look alike come from different tables or passages of the source.

B1: NPM[…]F (natural protein)
chain: not shown
As for B1, the binding result in data set [1] is reported as “binds”.

B2: NPM1-S4D (natural protein)
chain: not shown
For B2, the binding result in data set [2] is reported as “binds”.

B3: NPM[…]D (natural protein)
chain: not shown
For B3, in data set [2], the binding result is given as “binds”.
